# Measurements published in PubChem BioAssay (NCATS).
# This list was built around the results that the source calls inconclusive (neither active nor inactive); the mix of calls is not that of the screen. Potencies of inconclusive entries are doubtful fits and often do not repeat. Activity calls are given as the source filed them. Calls follow the shape of the dose curve; as a rule, active = well fitted curve in the direction sought with a large enough effect; inconclusive = small, poorly fitted or top-dose-only effect, or another doubt; inactive = no such curve, though single readings can be large; an effect the other way counts as inactive or inconclusive.
# Target: Methanococcus maripaludis chaperonin (MmCpn) (UniProt Q6LX38)
# Test: High-Throughput Screening for Modulators of Cytosolic Chaperonin Activity: MmCpn Primary Screen (AID 488978); as to activity change, negative = inhibition: 0% is about no effect
# Settings: Purified MmCpn ATPase activity, ADP HTRF detection, 10 min; series mostly up to 76.9 µM; activity change, negative = inhibition: at the top concentration
# In short: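 HTRF readout (320 nm excitation, 590/665 nm emission) of ADP generated by 50 nM MmCpn hydrolysing 30 uM ATP during 10 min at 37C; compound preincubated 5 min RT.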
# Potency is read from the fitted curve at half-maximal effect; tags tell the direction and shape of the fitted curve.
Compound,Potency,"activity change, negative = inhibition"
Cc1c(C(=O)c2cccc3ccccc23)c2cccc3c2n1[C@H](CN1CCOCC1)CO3,"inconclusive: 100 µM [inhibitor, single point]",
NC1CC1c1ccccc1 (configuration not stated),"inconclusive: 100 µM [inhibitor, single point]",
CC(=O)[C@H]1CC[C@H]2[C@@H]3CC[C@H]4C[C@](C)(O)CC[C@]4(C)[C@H]3CC[C@]12C,,inactive: 1.02%
O=[N+]([O-])c1ccc(O[C@@H]2O[C@H](CO)[C@@H](O)[C@H](O)[C@H]2F)c([N+](=O)[O-])c1,"inconclusive: 63.1 µM [inhibitor, single point]",

# Target: Transient receptor potential cation channel subfamily V member 1 (Homo sapiens) (UniProt Q8NER1)
# UniProt Q8NER1, sequence (Q8NER1 whole entry, looked up): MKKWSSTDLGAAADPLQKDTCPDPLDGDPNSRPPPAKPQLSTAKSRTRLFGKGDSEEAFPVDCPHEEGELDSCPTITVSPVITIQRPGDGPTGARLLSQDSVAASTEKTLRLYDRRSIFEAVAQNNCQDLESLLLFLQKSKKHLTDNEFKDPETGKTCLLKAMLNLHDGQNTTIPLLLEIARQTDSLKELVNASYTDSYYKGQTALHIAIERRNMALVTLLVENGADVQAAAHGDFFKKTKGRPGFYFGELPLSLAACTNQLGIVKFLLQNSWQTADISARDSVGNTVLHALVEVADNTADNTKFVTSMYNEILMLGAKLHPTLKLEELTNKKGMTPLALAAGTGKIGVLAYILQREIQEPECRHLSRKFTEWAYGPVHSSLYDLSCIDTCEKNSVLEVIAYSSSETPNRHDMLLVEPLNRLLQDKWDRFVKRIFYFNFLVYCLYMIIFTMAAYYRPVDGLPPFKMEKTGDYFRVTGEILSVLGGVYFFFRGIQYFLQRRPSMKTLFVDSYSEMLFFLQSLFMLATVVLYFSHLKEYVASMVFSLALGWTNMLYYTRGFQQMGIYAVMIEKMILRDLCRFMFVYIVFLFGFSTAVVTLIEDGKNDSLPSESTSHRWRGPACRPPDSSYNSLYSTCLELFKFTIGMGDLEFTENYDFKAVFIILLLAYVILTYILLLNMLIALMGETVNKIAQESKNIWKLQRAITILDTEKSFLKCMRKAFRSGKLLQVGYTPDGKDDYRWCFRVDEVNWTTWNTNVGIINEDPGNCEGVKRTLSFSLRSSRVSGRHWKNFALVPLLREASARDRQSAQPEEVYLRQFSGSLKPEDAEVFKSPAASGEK
# Test: HTS Assay for Compounds that Act as Enhancers of the Vanilloid Receptor 1 (AID 488979); as to activity change, positive = enhancement: 0% is about no effect
# Settings: TRPV1-expressing cells, enhancer of channel activity; series mostly up to 41.7 µM; activity change, positive = enhancement: at the top concentration
# In short: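 Calcium influx kinetics via Fluo-8 (480/520 nm) in TRPV1-expressing cells, 2000/well cultured overnight at 35.5C. Compound-alone read 3 min (agonist phase), followed by EC20 capsaicin challenge for 2 min (enhancer phase).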
Compound,Potency,"activity change, positive = enhancement"
S=C(NC1CCCCC1)N1CCC(c2cnc[nH]2)CC1,"inconclusive: 31.6 µM [activator, single point]",
CC(CCc1ccccc1)NC(C)C(O)c1ccc(O)cc1 (configuration not stated),"inconclusive: 15.8 µM [activator, single point]",
CN1C[C@H](CNC(=O)OCc2ccccc2)C[C@@H]2c3cccc4c3c(cn4C)C[C@H]21,"inconclusive: 11.2 µM [activator, single point]",
O=c1c2ccccc2[se]n1-c1ccccc1,"inconclusive: 31.6 µM [activator, single point]",
COc1cc(C(O)CN)ccc1O (configuration not stated),,inactive: 4.13%

# Target: D(1A) dopamine receptor (Homo sapiens) (UniProt P21728)
# UniProt P21728, sequence (P21728 whole entry, looked up): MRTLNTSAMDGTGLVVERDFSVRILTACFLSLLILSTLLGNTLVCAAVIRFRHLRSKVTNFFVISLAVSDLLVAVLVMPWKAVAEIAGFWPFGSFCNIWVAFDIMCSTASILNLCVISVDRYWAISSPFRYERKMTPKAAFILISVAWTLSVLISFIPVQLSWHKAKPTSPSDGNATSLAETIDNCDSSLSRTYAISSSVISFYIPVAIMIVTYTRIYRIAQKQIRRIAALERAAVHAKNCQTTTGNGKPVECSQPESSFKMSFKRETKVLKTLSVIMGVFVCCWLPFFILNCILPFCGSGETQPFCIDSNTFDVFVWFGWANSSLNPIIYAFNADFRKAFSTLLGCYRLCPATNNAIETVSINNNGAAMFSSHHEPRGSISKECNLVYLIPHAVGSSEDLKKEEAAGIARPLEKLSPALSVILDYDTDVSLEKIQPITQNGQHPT
# Test: HTS Assay for Allosteric Agonists of the Human D1 Dopamine Receptor: Primary Screen for Agonists (AID 488981); as to activation: 0% is about no effect
# Settings: Inducible HEK293 T-REx D1 cells, calcium-flux fluorescence, 180 s kinetic; series mostly up to 41.8 µM; activation: at the top concentration
# In short: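 Calcium flux in an inducible, force-coupled HEK293 Trex D1 line (overnight at 30 C): agonist mode is the 180 s kinetic read after compound; potentiator mode is the following 180 s read after dopamine at EC20.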
Compound,activation,Potency
NC(N)=Nc1ccc2[nH]c3c(c2c1)C[C@@]1(O)[C@H]2Cc4ccc(O)c5c4[C@@]1(CCN2CC1CC1)[C@H]3O5,inactive: -0.529%,
O=c1c2ccccc2[se]n1-c1ccccc1,,"inconclusive: 22.4 µM [activator, single point]"
C/C=C(/C)C(=O)O[C@H]1C(C)=C2[C@H]([C@@H]1OC(=O)CCCCCCC)[C@@](C)(OC(C)=O)C[C@H](OC(=O)CCC)[C@@]1(O)[C@H]2OC(=O)[C@@]1(C)O,,"inconclusive: 1 µM [activator, partial curve]"

# Target: D(1A) dopamine receptor (Homo sapiens) (UniProt P21728)
# Test: HTS Assay for Allosteric Agonists of the Human D1 Dopamine Receptor: Primary Screen for Antagonists (AID 488983);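 also: calcium flux response to an EC80 dopamine challenge measured with no-wash dye; nearly all actives have a fitted effect of over 65% in size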; as to activity change, negative = inhibition: % is scaled to controls: 0 for no effect and ±100 for the full control effect
# Settings: D1 receptor cell assay, antagonist mode, qHTS titration; series mostly up to 41.8 µM; activity change, negative = inhibition: at the top concentration
# In short: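 Kinetic fluorescence at 1 cycle/sec tracked intracellular calcium in force-coupled, tetracycline-inducible HEK293 T-REx D1 cells. Loss of response to an EC80 dopamine dose, given 180 s after compound, marked antagonists.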
Compound,"activity change, negative = inhibition",Potency
CC(C)=CCOc1c2occc2cc2ccc(=O)oc12,inactive: -13.6%,
O=c1c(O)c(-c2ccc(O)c(O)c2)oc2cc(O)cc(O)c12,,"inconclusive: 4.47 µM [activator, single point]"
CC(CCc1ccccc1)NC(C)C(O)c1ccc(O)cc1 (configuration not stated),,"inconclusive: 22.4 µM [inhibitor, single point]"
c1ccc(CCCN2CCN(CCOC(c3ccccc3)c3ccccc3)CC2)cc1,,"inconclusive: 5.01 µM [inhibitor, partial curve]"
COc1ccccc1N1CCNCC1,,"inconclusive: 31.6 µM [inhibitor, single point]"
CC(=O)[C@H]1CC[C@H]2[C@@H]3CC[C@H]4C[C@](C)(O)CC[C@]4(C)[C@H]3CC[C@]12C,inactive: 7.01%,
Cc1cc2c(C(C)C)c(O)c(O)c(C=O)c2c(O)c1-c1c(C)cc2c(C(C)C)c(O)c(O)c(C=O)c2c1O,,"inconclusive: 12.6 µM [inhibitor, partial curve]"
C/C=C(/C)C(=O)O[C@H]1C(C)=C2[C@H]([C@@H]1OC(=O)CCCCCCC)[C@@](C)(OC(C)=O)C[C@H](OC(=O)CCC)[C@@]1(O)[C@H]2OC(=O)[C@@]1(C)O,,"inconclusive: 0.02 µM [inhibitor, full curve, poor fit]"
CC(=O)[C@H]1CC[C@H]2[C@@H]3CC[C@H]4C[C@H](O)CC[C@]4(C)[C@H]3C(=O)C[C@]12C,inactive: -5.23%,
O=C(CCCN1CCC2(CC1)C(=O)NCN2c1ccccc1)c1ccc(F)cc1,,"inconclusive: 1.41 µM [inhibitor, full curve, poor fit]"
C[C@@H]1O[C@@H](O[C@H]2C[C@@H](O)[C@]3(CO)[C@H]4[C@H](O)C[C@]5(C)[C@@H](C6=CC(=O)OC6)CC[C@]5(O)[C@@H]4CC[C@]3(O)C2)[C@H](O)[C@H](O)[C@H]1O,inactive: -5.01%,
Cc1ncc(CNC(=O)N(CCCl)N=O)c(N)n1,inactive: -5.7%,
CN[C@@H]1C[C@@H](c2ccc(Cl)c(Cl)c2)c2ccccc21,,"inconclusive: 4.47 µM [inhibitor, partial curve]"
CC(C)c1cccc(C(C)C)c1O,,"inconclusive: 14.1 µM [activator, single point]"
CN(N=O)c1ccc(O)c(O)c1,inactive: 12.9%,
